Results reported in PubChem BioAssay (NCATS).
This list was built around the results that the source calls inconclusive (neither active nor inactive); the mix of calls is not that of the screen. Where the call is inconclusive, the potency comes from a doubtful curve fit. The source made the active and inactive calls. The call rests on the fitted dose curve; in most records, active means well fitted inhibition curve with a large enough effect; inconclusive means small, poorly fitted or top-dose-only effect; inactive means flat fitted curve, though single readings scatter.

biological target: Flap endonuclease 1 (Homo sapiens) (UniProt P39748); test: qHTS Assay for the Inhibitors of FEN1: Confirmatory Assay for Cherry-picked Compounds (AID 720498); conditions: FEN1 flap cleavage, TAMRA/BHQ2 fluorogenic DNA substrate; further: nearly all actives have a fitted effect of over 60% in size
Method in brief: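 FEN1 at 10 nM was preincubated with compound for 15 min at room temperature, then 50 nM (final) double-flap DNA substrate was added. TAMRA fluorescence released from the BHQ-2-quenched flap was read at 0 and 15 min (ex 525/em 598 nm).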
Potency means the concentration at half of the fitted maximal effect; tags describe the fitted curve by direction and shape.

Sequence of UniProt P39748 (P39748 whole entry, looked up): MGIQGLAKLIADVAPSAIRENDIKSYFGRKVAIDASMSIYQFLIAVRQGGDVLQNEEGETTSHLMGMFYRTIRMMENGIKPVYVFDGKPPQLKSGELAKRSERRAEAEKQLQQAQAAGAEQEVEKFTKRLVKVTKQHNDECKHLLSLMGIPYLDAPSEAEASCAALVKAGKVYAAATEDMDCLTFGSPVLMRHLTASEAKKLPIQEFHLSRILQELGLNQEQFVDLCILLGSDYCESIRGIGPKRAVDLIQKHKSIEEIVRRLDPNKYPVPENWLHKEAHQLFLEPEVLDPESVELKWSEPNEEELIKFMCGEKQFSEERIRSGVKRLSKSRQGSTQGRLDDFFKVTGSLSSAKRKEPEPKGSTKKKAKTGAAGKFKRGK

Potency, active:
CC(=O)Nc1sc2c(c1-c1nc3ccccc3s1)CCNC2 3.38 µM, CC1CCCC(C)N1C(=O)COC(=O)c1ccc([N+](=O)[O-])o1 (stereo not given) 15.1 µM, Cc1nc(N=C(N)N)nc2ccccc12 47.8 µM, CCN(CC)CCOc1ccc2c(c1)C(=NO)c1cc(OCCN(CC)CC)ccc1-2 8.49 µM, Nc1c(C(=O)O)ccc2c1C(=O)c1ccccc1C2=O 33.8 µM, O=C1c2ccc3c4c(ccc(c24)C(=O)N1CCCCO)C(=O)N(CCCCO)C3=O 30.1 µM, COc1cc(C(=S)N2CCN(c3ccccc3Cl)CC2)cc(O)c1O 15.1 µM, Cc1cc(C)c2c(N)c3cccc(C)c3nc2n1 15.1 µM, Cc1cc2[nH]c3c4ccccc4nc(C)c3c2cc1C 6.75 µM, CC(C)N1CCc2c(sc(NC(=O)C3CC3)c2-c2nc3ccccc3s2)C1 15.1 µM, CN(C)CCNC(=O)c1cccc2nc3cccc(F)c3nc12 19 µM, Cc1nc(Nc2ccncc2)c2oc3ccccc3c2n1 42.6 µM

Potency, inconclusive:
CCC(=O)N/C(N)=N/c1nc(C)c2cc(OC)ccc2n1 75.7 µM [inhibitor, partial curve], Cc1cc(=O)c2c(o1)C(=O)c1occc1C2=O 67.5 µM [inhibitor, partial curve], NC1CCN(c2c(F)cc3c(=O)c(C(=O)O)cn(C4CC4)c3c2Cl)C1 (stereo not given) 33.8 µM [inhibitor, partial curve], C/C(=N/NC(=O)c1ccco1)c1cccc(NC(=O)c2ccc(C)s2)c1 95.3 µM [inhibitor, partial curve], O=C(NN1C(=O)/C(=C/c2ccc(O)cc2)SC1=S)c1cccc(O)c1 95.3 µM [inhibitor, single point], Cc1ccccc1C1=C/C(=C(\SS/C(C(=O)c2ccc(OCC(=O)O)c(Cl)c2Cl)=C2\C=C(c3ccccc3C)SS2)C(=O)c2ccc(OCC(=O)O)c(Cl)c2Cl)SS1 84.9 µM [inhibitor, single point], COc1cc(-c2ccc3ncnc(NCc4ccc(C)o4)c3c2)cc(OC)c1OC 37.9 µM [inhibitor, partial curve], c1ccc2nc3c(nc2c1)c1ccccc1n3CCN1CCOCC1 47.8 µM [inhibitor, partial curve], COc1ccc(CCNc2c3ccccc3nc3ccccc23)cc1OC 42.6 µM [inhibitor, partial curve], CCC1CCCCN1CCCNC(=O)c1cc2c(Cl)nc3ccc(C)cc3c2s1 (stereo not given) 60.1 µM [inhibitor, partial curve], O=c1cc(-c2ccc(O)cc2)oc2ccc3ccccc3c12 67.5 µM [inhibitor, partial curve], COc1ccc(-c2cc(=O)c3c(O)cc(OC4OC(COC5OC(C)C(O)C(O)C5O)C(O)C(O)C4O)cc3o2)cc1O (stereo not given) 42.6 µM [inhibitor, partial curve], O=C(O)c1cc(NC(=O)c2ccc([N+](=O)[O-])cc2)cc(NC(=O)c2ccc([N+](=O)[O-])cc2)c1 75.7 µM [inhibitor, partial curve], NC(N)=Nc1nc(-c2ccccc2)c2ccccc2n1 67.5 µM [inhibitor, partial curve], c1ccc2c(c1)-c1cccc3cncc-2c13 42.6 µM [inhibitor, partial curve], CC(=O)Nc1sc2c(c1-c1nc3ccccc3s1)CCOC2 5.36 µM [inhibitor, full curve], CC(=O)C1CCC2C3CC=C4CC(SC(=N)N)CCC4(C)C3CCC12C (stereo not given) 75.7 µM [inhibitor, partial curve], COc1ccc(OC)c(Nc2nc(NCCO)c3ccccc3n2)c1 37.9 µM [inhibitor, partial curve]
